Test results reported in the supplement of paper PMC4604168 (melanoma cell lines).
The other results are listed elsewhere or left out. Repeats are few or missing, and single values can be far off.

Assays:
Assay in all cases: cell count relative to DMSO control; melanoma cells; higher = more viable cells
Settings in all cases: library dose: low library concentration; 72 h
[1] = system: WM115
[2] = system: WM1716
[3] = system: WM1745
[4] = system: WM3526
[5] = system: WM3619
[6] = system: WM451Lu
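Further: cell number obtained by counting DAPI-stained nuclei in high-throughput microscope images with image analysis software, screen run in 1,536-well plates.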

Row | Structure (SMILES) | cell count [1] [%] | cell count [2] [%] | cell count [3] [%] | cell count [4] [%] | cell count [5] [%] | cell count [6] [%]
1 | Nc1nc(F)nc2c1ncn2[C@@H]1O[C@H](CO)[C@@H](O)[C@@H]1O [fludarabine] + N#Cc1c(O)c2c(-c3ccc(-c4ccccc4O)cc3)csc2[nH]c1=O [A769662] (first compound 0.2 µM, partner dose 2 µM) | 100 | 100 | 94.8 | 22.7 | 98.7 | 45.8
2 | Nc1ccn([C@@H]2O[C@H](CO)[C@@H](O)C2(F)F)c(=O)n1 [gemcitabine] + C[C@]1(c2nc3c(C(N)=O)cccc3[nH]2)CCCN1 [Veliparib] (first compound 0.0004 µM, partner dose 1.4 µM) | 90.4 | 88.7 | 73.8 | 108 | 78.5 | 99
3 | Nc1ccn([C@@H]2O[C@H](CO)[C@@H](O)C2(F)F)c(=O)n1 [gemcitabine] + O=C(Nc1ccccc1)c1cc([N+](=O)[O-])ccc1Cl [GW9662] (first compound 0.0004 µM, partner dose 2 µM) | 84 | 101 | 75.3 | 107 | 72 | 110
4 | Nc1nc(F)nc2c1ncn2[C@@H]1O[C@H](CO)[C@@H](O)[C@@H]1O [fludarabine] + NCC(=O)Nc1ccc(-n2nc(C(F)(F)F)cc2-c2ccc3c(ccc4ccccc43)c2)cc1 [OSU03012] (first compound 0.2 µM, partner dose 1 µM) | 82.6 | 86.1 | 101 | 32.1 | 104 | 52.7
5 | CC(=O)c1c(C)c2cnc(Nc3ccc(N4CCNCC4)cn3)nc2n(C2CCCC2)c1=O [palbociclib] + OCc1c[nH]c2ccccc12 [Indole-3-carbinol] (first compound 0.04 µM, partner dose 0.8 µM) | 84.2 | 84.9 | 92.1 | 74.2 | 67.5 | 76.2
6 | CO[C@H]1C[C@@H]2CC[C@@H](C)[C@@](O)(O2)C(=O)C(=O)N2CCCC[C@H]2C(=O)O[C@H]([C@H](C)C[C@@H]2CC[C@@H](OCCO)[C@H](OC)C2)CC(=O)[C@H](C)/C=C(\C)[C@@H](O)[C@@H](OC)C(=O)[C@H](C)C[C@H](C)/C=C/C=C/C=C/1C [everolimus] + CNC(=O)c1cc(Oc2ccc(NC(=O)Nc3ccc(Cl)c(C(F)(F)F)c3)cc2)ccn1 [sorafenib] (first compound 0.02 µM, partner dose 0.4 µM) | 94.2 | 83.2 | 92.3 | 76 | 77.2 | 72.8
7 | Nc1nc(F)nc2c1ncn2[C@@H]1O[C@H](CO)[C@@H](O)[C@@H]1O [fludarabine] + Cc1ccc(NC(=O)c2cccc(N(C)C)c2)cc1NC(=O)c1ccc(O)cc1 [ZM336372] (first compound 0.2 µM, partner dose 2 µM) | 92.6 | 114 | 99 | 27.8 | 104 | 43.2
8 | CO[C@H]1C[C@@H]2CC[C@@H](C)[C@@](O)(O2)C(=O)C(=O)N2CCCC[C@H]2C(=O)O[C@H]([C@H](C)C[C@@H]2CC[C@@H](OCCO)[C@H](OC)C2)CC(=O)[C@H](C)/C=C(\C)[C@@H](O)[C@@H](OC)C(=O)[C@H](C)C[C@H](C)/C=C/C=C/C=C/1C [everolimus] + CC(C)CCN1c2nc(Nc3cc(F)c(O)c(F)c3)ncc2N(C)C(=O)C1C [BID1870] (first compound 0.02 µM, partner dose 0.2 µM) | 79.1 | 67.6 | 81 | 59.5 | 61.2 | 71.7
9 | Nc1nc(F)nc2c1ncn2[C@@H]1O[C@H](CO)[C@@H](O)[C@@H]1O [fludarabine] + CCCCCCCCCCCC1=C(O)C(=O)C=C(O)C1=O [Embelin] (first compound 0.2 µM, partner dose 1.2 µM) | 97.5 | 114 | 118 | 24.5 | 104 | 46.9
10 | Nc1ccn([C@@H]2O[C@H](CO)[C@@H](O)C2(F)F)c(=O)n1 [gemcitabine] + C=CCNC1=C2C[C@@H](C)C[C@H](OC)[C@H](O)[C@@H](C)/C=C(\C)[C@H](OC(N)=O)[C@@H](OC)/C=C\C=C(/C)C(=O)NC(=CC1=O)C2=O [Tanespimycin] (first compound 0.0004 µM, partner dose 0.002 µM) | 83.2 | 94.3 | 68.1 | 87.8 | 44.4 | 115
11 | CC(=O)c1c(C)c2cnc(Nc3ccc(N4CCNCC4)cn3)nc2n(C2CCCC2)c1=O [palbociclib] + Cc1ccc(NC(=O)c2cccc(N(C)C)c2)cc1NC(=O)c1ccc(O)cc1 [ZM336372] (first compound 0.04 µM, partner dose 2 µM) | 81.5 | 72.3 | 73.7 | 58.9 | 71 | 94.1
12 | Nc1nc(F)nc2c1ncn2[C@@H]1O[C@H](CO)[C@@H](O)[C@@H]1O [fludarabine] + COc1ccc(Cl)c(Nc2nc3ccccc3nc2NS(=O)(=O)c2cccc(NC(=O)C(C)(C)N)c2)c1 [XL147] (first compound 0.2 µM, partner dose 0.8 µM) | 90.3 | 93.1 | 119 | 29.1 | 106 | 46.5
13 | Nc1nc(F)nc2c1ncn2[C@@H]1O[C@H](CO)[C@@H](O)[C@@H]1O [fludarabine] + Cn1nnc2c(C(N)=O)ncn2c1=O [temozolomide] (first compound 0.2 µM, partner dose 2 µM) | 90.4 | 91.5 | 112 | 27.4 | 102 | 40.2
14 | Nc1nc(F)nc2c1ncn2[C@@H]1O[C@H](CO)[C@@H](O)[C@@H]1O [fludarabine] + C[C@]1(c2nc3c(C(N)=O)cccc3[nH]2)CCCN1 [Veliparib] (first compound 0.2 µM, partner dose 1.4 µM) | 90.4 | 90.3 | 92.4 | 29 | 91.8 | 64.7
15 | CO[C@H]1C[C@@H]2CC[C@@H](C)[C@@](O)(O2)C(=O)C(=O)N2CCCC[C@H]2C(=O)O[C@H]([C@H](C)C[C@@H]2CC[C@@H](OCCO)[C@H](OC)C2)CC(=O)[C@H](C)/C=C(\C)[C@@H](O)[C@@H](OC)C(=O)[C@H](C)C[C@H](C)/C=C/C=C/C=C/1C [everolimus] + Nc1cccc2c1CN(C1CCC(=O)NC1=O)C2=O [lenalidomide] (first compound 0.02 µM, partner dose 1 µM) | 74.3 | 58.3 | 87.4 | 72.6 | 75.3 | 77.1
16 | Nc1ncn([C@H]2C[C@H](O)[C@@H](CO)O2)c(=O)n1 [decitabine] + COc1cc(Nc2ncc(F)c(Nc3ccc4c(n3)NC(=O)C(C)(C)O4)n2)cc(OC)c1OC [Tamatinib] (first compound 0.1 µM, partner dose 0.4 µM) | 65.2 | 66.5 | 71 | 83.4 | 105 | 108
17 | CO[C@H]1C[C@@H]2CC[C@@H](C)[C@@](O)(O2)C(=O)C(=O)N2CCCC[C@H]2C(=O)O[C@H]([C@H](C)C[C@@H]2CC[C@@H](OCCO)[C@H](OC)C2)CC(=O)[C@H](C)/C=C(\C)[C@@H](O)[C@@H](OC)C(=O)[C@H](C)C[C@H](C)/C=C/C=C/C=C/1C [everolimus] + C=C(c1ccc(C(=O)O)cc1)c1cc2c(cc1C)C(C)(C)CCC2(C)C [Bexarotene] (first compound 0.02 µM, partner dose 2 µM) | 85.8 | 64.1 | 88.6 | 56.9 | 88.2 | 74.9
18 | Nc1nc(F)nc2c1ncn2[C@@H]1O[C@H](CO)[C@@H](O)[C@@H]1O [fludarabine] + CCc1ccc(CCOc2ccc(CC3SC(=O)NC3=O)cc2)nc1 [pioglitazone] (first compound 0.2 µM, partner dose 2 µM) | 96.1 | 88.6 | 97.1 | 31.9 | 104 | 51
19 | CC(=O)c1c(C)c2cnc(Nc3ccc(N4CCNCC4)cn3)nc2n(C2CCCC2)c1=O [palbociclib] + CC(C)CCN1c2nc(Nc3cc(F)c(O)c(F)c3)ncc2N(C)C(=O)C1C [BID1870] (first compound 0.04 µM, partner dose 0.2 µM) | 67.4 | 63.3 | 80.5 | 48.9 | 67.6 | 77.2
